The campaign covered roughly 310,000 compounds. About 2,200 (0.71%) showed an effect of 50% or more. The effect is printed as a negative number. The list shows a part of the results.
molecular target: human ether-à-go-go-related gene (hERG) potassium channel (human, UniProt Q12809); test: primary screen, population patch clamp on CHO cells stably expressing hERG
Sequence (Q12809 whole entry, looked up): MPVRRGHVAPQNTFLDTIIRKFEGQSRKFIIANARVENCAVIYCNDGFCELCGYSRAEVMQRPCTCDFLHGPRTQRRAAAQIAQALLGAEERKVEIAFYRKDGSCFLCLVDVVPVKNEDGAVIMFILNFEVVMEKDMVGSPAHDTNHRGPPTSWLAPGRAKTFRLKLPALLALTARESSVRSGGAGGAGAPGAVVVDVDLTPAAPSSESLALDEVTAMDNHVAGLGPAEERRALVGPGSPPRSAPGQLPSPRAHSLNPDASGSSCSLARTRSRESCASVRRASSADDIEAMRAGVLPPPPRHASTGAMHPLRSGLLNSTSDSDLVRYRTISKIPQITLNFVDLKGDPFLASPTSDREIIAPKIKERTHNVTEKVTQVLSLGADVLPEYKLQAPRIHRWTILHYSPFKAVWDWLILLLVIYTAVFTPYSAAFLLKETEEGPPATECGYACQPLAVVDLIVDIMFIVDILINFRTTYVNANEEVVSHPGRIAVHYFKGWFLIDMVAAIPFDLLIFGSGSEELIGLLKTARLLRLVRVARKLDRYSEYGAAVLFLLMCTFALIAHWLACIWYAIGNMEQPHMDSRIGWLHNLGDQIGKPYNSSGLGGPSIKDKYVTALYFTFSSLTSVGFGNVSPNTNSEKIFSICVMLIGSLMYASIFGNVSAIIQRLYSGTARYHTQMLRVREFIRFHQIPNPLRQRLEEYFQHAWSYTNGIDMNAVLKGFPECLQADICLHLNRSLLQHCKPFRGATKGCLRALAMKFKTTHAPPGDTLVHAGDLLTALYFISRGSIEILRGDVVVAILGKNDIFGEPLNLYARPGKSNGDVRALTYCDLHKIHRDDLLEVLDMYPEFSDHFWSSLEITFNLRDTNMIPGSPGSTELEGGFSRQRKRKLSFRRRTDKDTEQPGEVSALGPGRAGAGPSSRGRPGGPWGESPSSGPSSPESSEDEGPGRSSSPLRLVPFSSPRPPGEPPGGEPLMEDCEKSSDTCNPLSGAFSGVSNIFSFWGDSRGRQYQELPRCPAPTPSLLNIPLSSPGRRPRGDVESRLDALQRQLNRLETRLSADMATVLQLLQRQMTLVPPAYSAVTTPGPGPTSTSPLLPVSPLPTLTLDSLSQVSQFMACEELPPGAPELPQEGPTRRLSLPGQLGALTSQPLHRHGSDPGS

| SMILES | hERG current change (%, negative = inhibition) at 1uM [%] |
| --- | --- |
| CCCCC(=O)Nc1ccc(C(=O)NNC(=O)CCc2ccccc2)cc1 | 15.2 |
| COc1ccc(CCNC(=O)CSc2nnc3ccc(-c4ccccn4)nn23)cc1 | -18.4 |
| CN(CC(=O)Nc1ccccc1C(F)(F)F)C(=O)CCc1nc2sc3c(c2c(=O)[nH]1)CCCC3 | 15.9 |
| O=C(COC(=O)CCN1C(=O)/C(=C\C=C\c2ccccc2)SC1=S)Nc1ccc(Br)cc1 | 3.88 |
| CCCCNc1nc2ccccc2n1CC(=O)Nc1ccc2c(c1)OCCO2 | -2.26 |
| Cc1cccc(CCNS(=O)(=O)c2ccc(S(=O)(=O)N3CCC(C)CC3)cc2)c1 | 1.88 |
| O=[N+]([O-])c1cccc(-c2n[nH]c(=S)n2-c2ccc(Br)cc2)c1 | 9.45 |
| CC1CCCC(NC(=O)c2ccc3c(SCC(=O)O)c4c(nc3c2)CCC4)C1C (stereo not shown) | 14.2 |
| COc1ccc(/C=C2/SC(=S)N(CCCC(=O)Nc3ccc(O)cc3)C2=O)cc1OC | 1.83 |
| O=C1NC(=S)N/C1=C\c1cccnc1 | 10.8 |
| COc1ccc(C2(O)C(=O)Nc3ccc(C)cc32)cc1 (stereo not shown) | 13.4 |
| O=C1c2cccc([N+](=O)[O-])c2C(=O)N1c1cccnc1 | 16.7 |
| CNC(=O)c1c(NC(=O)CS(=O)(=O)c2ccc(Cl)cc2)sc(C)c1C | -3.47 |
| COc1ccc(C(=O)NCC(=O)NCC2COc3ccccc3O2)cc1 (stereo not shown) | 6.11 |
| COC(=O)Cn1c2ccccc2c2nc(=O)cc(C)n21 | 8.48 |
| COc1ccc(N2C(=O)C3C(C2=O)C(C(=O)c2ccc(Cl)cc2)N2CCCC32)cc1 (stereo not shown) | 4.57 |
| CC(C)(C)NC(=O)COc1coc(CN2CCN(C(=O)c3ccco3)CC2)cc1=O | 11.7 |
| O=C(Nc1ccc(S(=O)(=O)Nc2nccc(C3Cc4ccccc4C(=O)O3)n2)cc1)c1ccccc1 (stereo not shown) | -3.06 |
| O=C(O)Cn1c(P(=O)(O)c2ccccc2)nc2ccccc21 | 17.3 |
| COc1ccc(-c2cc3ccccc3oc2=O)cc1 | 9.73 |
| CC(OC(=O)c1cc(Br)ccc1O)C(=O)NCc1ccc2c(c1)OCO2 (stereo not shown) | 4.73 |
| COc1ccc(C2C(C(=O)Nc3ccccc3)=C(C)Nc3nc(CCCO)nn32)cc1 (stereo not shown) | 11.2 |

| SMILES | hERG current change (%, negative = inhibition) at 1uM [%] |
| --- | --- |
| CC(CC(=O)Nc1cc([N+](=O)[O-])ccc1Cl)c1ccccc1 (stereo not shown) | 9.98 |
| CC(=O)Nc1ccc(S(=O)(=O)NC2=NCN(c3cccc([N+](=O)[O-])c3)CN2)cc1 | 8.7 |
| COc1ccc(CNC(=O)CSc2nc3c(oc4ccccc43)c(=O)n2CC2CCCO2)cc1 (stereo not shown) | -0.0282 |
| COc1cccc2c1O[C@H]1C(=O)CC[C@H]3CN(C)CCC231 (stereo partly shown) | 16.6 |
| COc1ccc(C(=O)Nc2c(Cl)cc(Cl)cc2C(=O)NCCN2CCOCC2)cc1 | -16.5 |
| CCCc1cc(=O)oc2cc(C)cc(OCC(=O)O)c12 | 14.8 |
| COCCCn1c(SCC(=O)N2CCOCC2)nc2ccccc2c1=O | 4.37 |
| O=C(CCN1C(=O)C2C3C=CC(C4CC34)C2C1=O)OCC(=O)c1ccccc1 (stereo not shown) | 7.66 |
| CCOc1ccc(C(C)=O)cc1COC(=O)CNC(=O)c1cccs1 | 8.53 |
| CCCNC(=O)C(CC)NC(=O)c1cccc([N+](=O)[O-])c1 (stereo not shown) | 16.7 |
| CCC(=O)NC(c1cccc([N+](=O)[O-])c1)c1c(O)ccc2ccccc12 (stereo not shown) | 18.5 |
| CC(C)CCn1c(Oc2ccccc2Cl)nc2c1c(=O)n(C)c(=O)n2C | 3.76 |
| C#CCn1c(=NC(=O)c2cccs2)sc2cccc(OC)c21 | 14.7 |
| Cc1cc(C)n(-c2ccc(C(=O)OCC(=O)Nc3ccc(Cl)c(S(=O)(=O)N(C)C)c3)cc2)n1 | -0.413 |
| Cc1cccc(C(=O)O)c1[N+](=O)[O-] | 9.69 |
| CC1CCCC(N2CCN(C(=O)c3ccccc3F)CC2)C1 (stereo not shown) | 11.2 |
| COc1ccc(C2=NN(C(=O)/C=C/c3ccccc3)C(c3ccccc3)C2)c(OC(C)=O)c1 (stereo not shown) | 6.02 |
| CC(=O)Nc1ccc(NC(=O)CSc2nnc3ccc(-c4ccc(F)cc4)nn23)cc1 | 14.2 |
| O=[N+]([O-])c1cccc(-c2ncc3ccccn23)c1 | 3.34 |
| COc1ccc(-n2nc(C(=O)NCC(=O)NCc3ccco3)c3ccccc3c2=O)cc1Cl | -0.212 |
| S=C(c1cn(CCOc2ccccc2)c2ccccc12)N1CCCC1 | 7.78 |

Reference: PMC4336329 (PLoS ONE, 2015)
